This is one part of the list.
Experiments:
Experiment in all cases: glycan array binding signal (z-score within array); higher = stronger binding
Details in all cases: glycan notation: IUPAC condensed, linker removed
[1] = target: Fuc(a1-2)Gal6S(b1-3)GlcNAc6S
Method in brief: (§1)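 From the Consortium for Functional Glycomics database, 3228 arrays were curated, keeping only those whose protein sequence was available. Binding is given as a within-array Z-score averaged across arrays sharing a protein sequence and across linkers. Negative Z-scores can be read as non-binding.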

[2] = target: Fuc(a1-2)Gal6S(b1-4)Glc
Method in brief: as §1

[3] = target: Fuc(a1-2)Gal6S(b1-4)Glc6S
Method in brief: as §1

[4] = target: Fuc(a1-2)[Gal(a1-3)]Gal
Method in brief: as §1

[5] = target: Fuc(a1-2)[Gal(a1-3)]Gal(b1-3)GalNAc
Method in brief: as §1

[6] = target: Fuc(a1-2)[Gal(a1-3)]Gal(b1-3)GalNAc(b1-3)Gal(a1-4)Gal(b1-4)Glc
Method in brief: as §1

[7] = target: Fuc(a1-2)[Gal(a1-3)]Gal(b1-3)GlcNAc
Method in brief: as §1

[8] = target: Fuc(a1-2)[Gal(a1-3)]Gal(b1-3)GlcNAc(b1-2)Man(a1-3)[Fuc(a1-2)[Gal(a1-3)]Gal(b1-3)GlcNAc(b1-2)Man(a1-6)]Man(b1-4)GlcNAc(b1-4)GlcNAc
Method in brief: as §1

[9] = target: Fuc(a1-2)[Gal(a1-3)]Gal(b1-3)GlcNAc(b1-2)Man(a1-3)[Fuc(a1-2)[Gal(a1-3)]Gal(b1-3)GlcNAc(b1-2)Man(a1-6)]Man(b1-4)GlcNAc(b1-4)[Fuc(a1-6)]GlcNAc
Method in brief: as §1

[10] = target: Fuc(a1-2)[Gal(a1-3)]Gal(b1-3)GlcNAc(b1-3)GalNAc
Method in brief: as §1

[11] = target: Fuc(a1-2)[Gal(a1-3)]Gal(b1-3)GlcNAc(b1-6)GalNAc
Method in brief: as §1

[12] = target: Fuc(a1-2)[Gal(a1-3)]Gal(b1-4)Glc
Method in brief: as §1

[13] = target: Fuc(a1-2)[Gal(a1-3)]Gal(b1-4)GlcNAc
Method in brief: as §1

[14] = target: Fuc(a1-2)[Gal(a1-3)]Gal(b1-4)GlcNAc(b1-2)Man
Method in brief: as §1

[15] = target: Fuc(a1-2)[Gal(a1-3)]Gal(b1-4)GlcNAc(b1-2)Man(a1-3)[Fuc(a1-2)[Gal(a1-3)]Gal(b1-4)GlcNAc(b1-2)Man(a1-6)]Man(b1-4)GlcNAc(b1-4)GlcNAc
Method in brief: as §1

[16] = target: Fuc(a1-2)[Gal(a1-3)]Gal(b1-4)GlcNAc(b1-2)Man(a1-3)[Fuc(a1-2)[Gal(a1-3)]Gal(b1-4)GlcNAc(b1-2)Man(a1-6)]Man(b1-4)GlcNAc(b1-4)[Fuc(a1-6)]GlcNAc
Method in brief: as §1

[17] = target: Fuc(a1-2)[Gal(a1-3)]Gal(b1-4)GlcNAc(b1-3)GalNAc
Method in brief: as §1

[18] = target: Fuc(a1-2)[Gal(a1-3)]Gal(b1-4)GlcNAc(b1-3)[Fuc(a1-2)[Gal(a1-3)]Gal(b1-4)GlcNAc(b1-6)]GalNAc
Method in brief: as §1

[19] = target: Fuc(a1-2)[Gal(a1-3)]Gal(b1-4)GlcNAc(b1-6)GalNAc
Method in brief: as §1

[20] = target: Fuc(a1-2)[Gal(a1-3)]Gal(b1-4)[Fuc(a1-3)]Glc
Method in brief: as §1

[21] = target: Fuc(a1-2)[Gal(a1-3)]Gal(b1-4)[Fuc(a1-3)]GlcNAc
Method in brief: as §1

[22] = target: Fuc(a1-2)[Gal(a1-3)]Gal(b1-4)[Fuc(a1-3)]GlcNAc(b1-3)GalNAc
Method in brief: as §1

[23] = target: Fuc(a1-2)[Gal(a1-4)]Gal(b1-4)GlcNAc
Method in brief: as §1

[24] = target: Fuc(a1-2)[GalNAc(a1-3)]Gal
Method in brief: as §1

[25] = target: Fuc(a1-2)[GalNAc(a1-3)]Gal(b1-3)GalNAc(a1-3)[Fuc(a1-2)]Gal(b1-4)GlcNAc
Method in brief: as §1

[26] = target: Fuc(a1-2)[GalNAc(a1-3)]Gal(b1-3)GalNAc(b1-3)Gal(a1-4)Gal(b1-4)Glc
Method in brief: as §1

[27] = target: Fuc(a1-2)[GalNAc(a1-3)]Gal(b1-3)GlcNAc
Method in brief: as §1

[28] = target: Fuc(a1-2)[GalNAc(a1-3)]Gal(b1-3)GlcNAc(b1-2)Man(a1-3)[Fuc(a1-2)[GalNAc(a1-3)]Gal(b1-3)GlcNAc(b1-2)Man(a1-6)]Man(b1-4)GlcNAc(b1-4)GlcNAc
Method in brief: as §1

[29] = target: Fuc(a1-2)[GalNAc(a1-3)]Gal(b1-3)GlcNAc(b1-2)Man(a1-3)[Fuc(a1-2)[GalNAc(a1-3)]Gal(b1-3)GlcNAc(b1-2)Man(a1-6)]Man(b1-4)GlcNAc(b1-4)[Fuc(a1-6)]GlcNAc
Method in brief: as §1

[30] = target: Fuc(a1-2)[GalNAc(a1-3)]Gal(b1-3)GlcNAc(b1-3)GalNAc
Method in brief: as §1

[31] = target: Fuc(a1-2)[GalNAc(a1-3)]Gal(b1-3)GlcNAc(b1-6)GalNAc
Method in brief: as §1

[32] = target: Fuc(a1-2)[GalNAc(a1-3)]Gal(b1-4)Glc
Method in brief: as §1

[33] = target: Fuc(a1-2)[GalNAc(a1-3)]Gal(b1-4)GlcNAc
Method in brief: as §1

[34] = target: Fuc(a1-2)[GalNAc(a1-3)]Gal(b1-4)GlcNAc(b1-2)Man
Method in brief: as §1

[35] = target: Fuc(a1-2)[GalNAc(a1-3)]Gal(b1-4)GlcNAc(b1-2)Man(a1-3)[Fuc(a1-2)[GalNAc(a1-3)]Gal(b1-4)GlcNAc(b1-2)Man(a1-6)]Man(b1-4)GlcNAc(b1-4)GlcNAc
Method in brief: as §1

[36] = target: Fuc(a1-2)[GalNAc(a1-3)]Gal(b1-4)GlcNAc(b1-2)Man(a1-3)[Fuc(a1-2)[GalNAc(a1-3)]Gal(b1-4)GlcNAc(b1-2)Man(a1-6)]Man(b1-4)GlcNAc(b1-4)[Fuc(a1-6)]GlcNAc
Method in brief: as §1

[37] = target: Fuc(a1-2)[GalNAc(a1-3)]Gal(b1-4)GlcNAc(b1-3)Gal(b1-4)GlcNAc
Method in brief: as §1

[38] = target: Fuc(a1-2)[GalNAc(a1-3)]Gal(b1-4)GlcNAc(b1-3)Gal(b1-4)GlcNAc(b1-3)Gal(b1-4)GlcNAc
Method in brief: as §1

[39] = target: Fuc(a1-2)[GalNAc(a1-3)]Gal(b1-4)GlcNAc(b1-3)GalNAc
Method in brief: as §1

[40] = target: Fuc(a1-2)[GalNAc(a1-3)]Gal(b1-4)GlcNAc(b1-3)[Fuc(a1-2)[GalNAc(a1-3)]Gal(b1-4)GlcNAc(b1-6)]GalNAc
Method in brief: as §1

[41] = target: Fuc(a1-2)[GalNAc(a1-3)]Gal(b1-4)GlcNAc(b1-6)GalNAc
Method in brief: as §1

[42] = target: Fuc(a1-2)[GalNAc(a1-3)]Gal(b1-4)[Fuc(a1-3)]GlcNAc
Method in brief: as §1

[43] = target: Fuc(a1-2)[GalNAc(a1-3)]Gal(b1-4)[Fuc(a1-3)]GlcNAc(b1-3)GalNAc
Method in brief: as §1

[44] = target: Fuc(a1-2)[GalNAc(a1-4)]Gal(b1-4)GlcNAc
Method in brief: as §1

[45] = target: Fuc(a1-2)[GalNAc(b1-3)]Gal
Method in brief: as §1

B1: SAOUHSC 00176 (Staphylococcus aureus) (protein)
chain: MSKILKCITLAVVMLLIVTACGPNRSKEDIDKALNKDNSKDKPNQLTMWVDGDKQMAFYKKITDQYTKKTGIKVKLVNIGQNDQLENISLDAPAGKGPDIFFLAHDNTGSAYLQGLAAEIKLSKDELKGFNKQALKAMNYDNKQLALPAIVETTALFYNKKLVKNAPQTLEEVEANAAKLTDSKKKQYGMLFDAKNFYFNYPFLFGNDDYIFKKNGSEYDIHQLGLNSKHVVKNAERLQKWYDKGYLPKAATHDVMIGLFKEGKVGQFVTGPWNINEYQETFGKDLGVTTLPTDGGKPMKPFLGVRGWYLSEYSKHKYWAKDLMLYITSKDTLQKYTDEMSEITGRVDVKSSNPNLKVFEKQARHAEPMPNIPEMRQVWEPMGNASIFISNGKNPKQALDEATNDITQNIKILHPSQNDKKGD
[1]
  glycan array binding signal (z-score): -0.127
[2]
  glycan array binding signal (z-score): -0.108
[3]
  glycan array binding signal (z-score): -0.14
[4]
  glycan array binding signal (z-score): 0.117
[5]
  glycan array binding signal (z-score): -0.121
[6]
  glycan array binding signal (z-score): -0.177
[7]
  glycan array binding signal (z-score): -0.115
[8]
  glycan array binding signal (z-score): -0.052
[9]
  glycan array binding signal (z-score): 0.042
[10]
  glycan array binding signal (z-score): -0.087
[11]
  glycan array binding signal (z-score): -0.086
[12]
  glycan array binding signal (z-score): -0.004
[13]
  glycan array binding signal (z-score): -0.128
[14]
  glycan array binding signal (z-score): -0.065
[15]
  glycan array binding signal (z-score): -0.01
[16]
  glycan array binding signal (z-score): 0.027
[17]
  glycan array binding signal (z-score): -0.196
[18]
  glycan array binding signal (z-score): 0.03
[19]
  glycan array binding signal (z-score): -0.115
[20]
  glycan array binding signal (z-score): -0.161
[21]
  glycan array binding signal (z-score): -0.07
[22]
  glycan array binding signal (z-score): -0.117
[23]
  glycan array binding signal (z-score): -0.01
[24]
  glycan array binding signal (z-score): -0.129
[25]
  glycan array binding signal (z-score): -0.122
[26]
  glycan array binding signal (z-score): -0.02
[27]
  glycan array binding signal (z-score): -0.088
[28]
  glycan array binding signal (z-score): -0.14
[29]
  glycan array binding signal (z-score): -0.133
[30]
  glycan array binding signal (z-score): -0.086
[31]
  glycan array binding signal (z-score): -0.227
[32]
  glycan array binding signal (z-score): -0.145
[33]
  glycan array binding signal (z-score): -0.132
[34]
  glycan array binding signal (z-score): -0.143
[35]
  glycan array binding signal (z-score): -0.026
[36]
  glycan array binding signal (z-score): 0.225
[37]
  glycan array binding signal (z-score): -0.18
[38]
  glycan array binding signal (z-score): -0.095
[39]
  glycan array binding signal (z-score): -0.093
[40]
  glycan array binding signal (z-score): -0.092
[41]
  glycan array binding signal (z-score): -0.2
[42]
  glycan array binding signal (z-score): -0.149
[43]
  glycan array binding signal (z-score): 0.044
[44]
  glycan array binding signal (z-score): -0.067
[45]
  glycan array binding signal (z-score): -0.062
